In PMC12136788:
The list shows a part of the results.

T1: UNK ZnF1-3 (human, UniProt Q9C0B0 31-174)
T1 sequence: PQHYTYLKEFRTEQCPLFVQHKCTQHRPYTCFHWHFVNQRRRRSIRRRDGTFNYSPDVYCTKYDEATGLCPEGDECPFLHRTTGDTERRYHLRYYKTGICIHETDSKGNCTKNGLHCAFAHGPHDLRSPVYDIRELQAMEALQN

B1: chr12:48362563:48362564:+_ENSG00000134291_ENST00000256686|hu_hu|hu_hu_hu_mus_False|48_78 (ssRNA)
RNA: GGGAGUUCUACAGUCCGACGAUCUCCGUCAAGCCCUUCGAUAGACCCUUGCGGGGGUGGUAAAAACCACUUUGUAUGGGGAAGGAAAAAAAAAGCCAAAAACUUUCCAAAAAGCGGGGGUGGGGUGAGGCGGGAGGGGGAGGUCAACAGAGGAUUGAGCAUCA
B2: chr5:34944098:34944099:+_ENSMUSG00000029106_ENSMUST00000114338|mus_hu|FALSE|FALSE (ssRNA)
RNA: GGGAGUUCUACAGUCCGACGAUCUUGCUCCAUCAUGUUGAAGUCCUGGCGAAGGUCUGGUGCCAUGUUCCUCUCCCUCAAGUACUCUGGGUUGUUCUCAUCUACUCGGUCGAAGUACCUCUCCUUGUGAGGGGCUGUGGUCGGCAACAGAGGAUUGAGCAUCA
B3: chr11:86132931:86132932:-_ENSMUSG00000034297_ENSMUST00000043624|mus_hu|motif|central (ssRNA)
RNA: GGGAGUUCUACAGUCCGACGAUCUCCAAAAGGUCCAACUGGAUCAUCCUUGAAUUUAUCACUUGGAAGUUGAGGUGGUAAAAACUCGGCAUCUUUUUUCUUUGGGAACUUGUAAUACUUCCAGGCUAUAUUGGCUUCAUCUUCCAACAGAGGAUUGAGCAUCA
B4: chr9:88635815:88635816:+_ENSG00000135040_ENST00000361671|hu_mus|motif|central (ssRNA)
RNA: GGGAGUUCUACAGUCCGACGAUCUCCUCCUGCUAAGAGCUUCAUAACCACAAAGUUGGGCUUGGCAACCUUCAGGAUUCGGCUGACCUCACGGUCUGGAUUGGGGAUAUUUUCAAGGAUCAUUUUUGCCUGCUGAAAGUGCUUCAACAGAGGAUUGAGCAUCA
B5: 78564915_78565035_256_CDS_ENSMUSG00000049489_ENSMUST00000059468|mouse|control|control (ssRNA)
RNA: GGGAGUUCUACAGUCCGACGAUCGCCGGCCAAGUAAAUGGAAGACAUGGCGACCAGGUAGAGGUCAUAUGCGUCCAGGUUGAUCUCGCAGAAGAACUUAUGGUAAAUGGUGCAAGCGGUGGCGAUGGGGAUGGACUGCAUGCCCAACAGAGGAUUGAGCAUCA
B6: chr11:29096238:29096239:+_ENSMUSG00000020463_ENSMUST00000020755|mus_mus|motif|central (ssRNA)
RNA: GGGAGUUCUACAGUCCGACGAUCUUGCAAGUCAUCCAUGCCCAUUACAAUUUCAAGAGCUGGAAGAAUUCCCAAUUUUGCGGAGGUUUUGAAAAAAGCAUCCCUGUUCUGAGGUUGCAAUGUCUGAGAAAAUGCACAAAAUUCCAACAGAGGAUUGAGCAUCA
B7: chr5:93602159:93602160:+_ENSMUSG00000058013_ENSMUST00000074733|mus_mus|motif|central (ssRNA)
RNA: GGGAGUUCUACAGUCCGACGAUCGCAUGUCUUUAAAAGCUUUUAGGGAUGAGAGAAAUUGAAUGCAAAGGGGUGUUUUCGGUUCCAAGGCACAUACACACACACAAAAUAAAGCUCACACAAGCAGUGGCCGGAACAAGCAGACAACAGAGGAUUGAGCAUCA
B8: 55315182_55315302_772_3pUTR_ENSMUSG00000021488_ENSMUST00000099490|mouse|control|control (ssRNA)
RNA: GGGAGUUCUACAGUCCGACGAUCGUUUAUUUUUCUGUUUUUCAGUUUGAGGAGCUAACGGCAAGAAUGGCCGUUCCACUGCACCAUGUCUACUCUCUGGCAUGCUGUCUUGUUCACUUCCCAUGGCCACUUCUACACCAUUCUCAACAGAGGAUUGAGCAUCA
B9: 89285464_89287241_2550_3pUTR_ENSMUSG00000030084_ENSMUST00000163139|mouse|control|control (ssRNA)
RNA: GGGAGUUCUACAGUCCGACGAUCACAUCAUUCCCCUCAUAGGAGUACGAGGAGUUCUGGCACUGCAGGCUGGAGCUGUUGAAGCGCAGUGCAGUGACUCGGGCCGGGCUGCCUGGGAUGUGGAAAAGGCACUCGUACCCUCGCCAACAGAGGAUUGAGCAUCA
B10: chr5:145543945:145543946:-_ENSG00000133706_ENST00000545646|hu_hu|hu_hu_hu_mus_True|8_98 (ssRNA)
RNA: GGGAGUUCUACAGUCCGACGAUCCUGAACGGCCAGUGGCGGGAAAUAAUCAAGCCAGUGCUCUGCUUCAGAAAACUUCACUAUGUCGUCAUCAGAGAGCCCAAGGGAUUUCAUAAUGUCCCACUGGUAUUUAGAAGAUCCUGCCAACAGAGGAUUGAGCAUCA
B11: chr6:109690081:109690082:-_ENSG00000135535_ENST00000310786|hu_mus|FALSE|FALSE (ssRNA)
RNA: GGGAGUUCUACAGUCCGACGAUCCAGUCCACAUUAAUUUAACAGGUCUGUUUACAGAGUAUGGUAAUUUCGUUCUUUAGAUUUGCAGAACUUAUAGAGAAAGAAAAUUACAGCCUGCACACCCAAGACAAGGACGAUCCCUCCCAACAGAGGAUUGAGCAUCA
B12: chr11:837959:837960:+_ENSG00000177697_ENST00000530726|hu_hu|FALSE|FALSE (ssRNA)
RNA: GGGAGUUCUACAGUCCGACGAUCAAUGCCGAUCCCCACAGCCCCAAUGACCCUCAGGUGCUCCUGGAUGAAGGUCUCCAACUUGGUGAUGCAGCCGCCCUCCACCUUGUAGAUGUUGGAGGCAUGGUCUCGCUGCCCACAAAGCAACAGAGGAUUGAGCAUCA
B13: 123645691_123645811_3519_CDS_ENSG00000051825_ENST00000606320|human|control|control (ssRNA)
RNA: GGGAGUUCUACAGUCCGACGAUCUUCUUUUGUAAGUUCAUCAAAAAAUCGUUCUGUUUCAGCUAGGGUCCGAAUUUUUGCUGUAUAUUCAAAAUCAUUCCCCUGUGGAGUGACUGAAACCGGCUUACACUGUUCGUAGCUAACCAACAGAGGAUUGAGCAUCA
B14: 110463623_110465440_4783_CDS_ENSMUSG00000044791_ENSMUST00000153838|mouse|control|control (ssRNA)
RNA: GGGAGUUCUACAGUCCGACGAUCCUCGUCAUUUUUCAGGGCCAUGAAGUAGUAGUGGAUGUUUUUGUUCCGUGCAUAUUCUUUCACCCGAGCUUUAAACUCUUUAUGAUCAAGUACCUCUCCACAGUAUUCCAGGACAAAGGUCAACAGAGGAUUGAGCAUCA
B15: chr18:33688888:33688889:-_ENSG00000141424_ENST00000269187|hu_hu|motif|central (ssRNA)
RNA: GGGAGUUCUACAGUCCGACGAUCUGCUUGAAUUCAUUAAAUAUAUUUAGAUUUCUGUAUUAUACAAAGUUAAAUGUACAACGGAAUUAGUAUAUGAAAAGUGCUCACUACGUUUUUACGGGAAAUAAUCCUGACAAAAAUGUUCAACAGAGGAUUGAGCAUCA
B16: chr13:100192284:100192285:-_ENSMUSG00000052727_ENSMUST00000064762|mus_mus|FALSE|FALSE (ssRNA)
RNA: GGGAGUUCUACAGUCCGACGAUCUGGUAAAAUUUCCAUUAGCAAAUGAUUAAAUUUAUAAAACGAGUAUUAGAAAGCUCCUAAAUUUCAUAAGCUAUUGGAAACACUUAAAACAUUCAUAUACACUGGGGAAACCAUUCACUACAACAGAGGAUUGAGCAUCA
B17: chr2:125074910:125074911:+_ENSMUSG00000027203_ENSMUST00000082122|mus_hu|motif|central (ssRNA)
RNA: GGGAGUUCUACAGUCCGACGAUCUUUUGCAGCCAAGCCUGACCGUGGAGCCACUCUUCCAUAACACCCAGAAGGGAGCGCGGUCUGAAUGUCCGUUUUCACAACAGCUUUCUCCAUAGGUGGUAUUGUGUAAUCAUAGGCACUCAACAGAGGAUUGAGCAUCA
B18: chr2:24917620:24917621:+_ENSMUSG00000006476_ENSMUST00000102931|mus_mus|FALSE|FALSE (ssRNA)
RNA: GGGAGUUCUACAGUCCGACGAUCAGUAAUGCUGCUUCCCUUCAAAUUGUUUCAGGGGUGUAAAAAAAUUGCACUUAUUUCUAUGAACCCCAUGGAGGGGAUCCCCAAUGCUGCUGCCUCCAGGCGAGGCAUGACAGGUCAAUGCAACAGAGGAUUGAGCAUCA
B19: 34915422_34918585_112_CDS_ENSG00000159140_ENST00000381679|human|control|control (ssRNA)
RNA: GGGAGUUCUACAGUCCGACGAUCAUCACCCGCCUGGUUUCCUUCAAUGGGUGUAUUUGUUUCACCAUUCAGCUGGCCUUCAUUCCUUCCACUGGAAAGCUCCUGUUGAAUUUCCCGGAAUUUACUGACCACGAAAGACCUAAACAACAGAGGAUUGAGCAUCA
B20: 32767072_32769260_1369_CDS_ENSG00000182973_ENST00000328834|human|control|control (ssRNA)
RNA: GGGAGUUCUACAGUCCGACGAUCAGGCCUUCCAAUGUGAAGAAGCUGAAUUCCACAGUUAUACAGCAACUCAUAUCUCUUAUUGGUUAGUAACGUACACAUGGGUCUUCCUGAAAAUUUUUUACCUGGAUCAGUGCUACCUGCCAACAGAGGAUUGAGCAUCA
B21: chr10:60127708:60127709:+_ENSG00000072401_ENST00000373910|hu_hu|FALSE|FALSE (ssRNA)
RNA: GGGAGUUCUACAGUCCGACGAUCUGCAUGUCUGUUGUAUUUUUCUUUGUCUGAUUUAUAGAUUUGUGCAAUAUCUGGUACUAAGGGGUCAUCUGGAUUAGGAUCACAAAGUAGAGAACAUAUGGACAAUAAAACUUUUGAUACCAACAGAGGAUUGAGCAUCA
B22: chr1:60041781:60041782:+_ENSMUSG00000041040_ENSMUST00000036540|mus_hu|mus_mus_mus_hu_False|98_108 (ssRNA)
RNA: GGGAGUUCUACAGUCCGACGAUCAAGAGGAGUGAAUCUCAACUUUAGCAGUAGUGGCAAAUUUUCUUUUAUUUUCCUUCACAAAAGAAAAUCUUUAUAACCCAGUCCUAGUCUUGGACAUAGUGAAAGCUAUAAAUUCUGACUCAACAGAGGAUUGAGCAUCA

Target: T1, UNK ZnF1-3
Experiment: nsRBNS (natural sequence RNA bind-n-seq); RBNS binding buffer (assumed for nsRBNS): 25 mM Tris pH 7.5, 150 mM KCl, 3 mM MgCl2, 0.01% Triton X-100, 500 ug/ml BSA, 20 U/ml SUPERase-In, 4 C; UNK is unkempt and MSI1 is Musashi-1; names of the RNAs are library labels; protein concentration not given here; high values mean tight binding

| Binder | binding signal |
| --- | --- |
| B1 | 1.62 enrichment R |
| B2 | 0.628 enrichment R |
| B3 | 0.728 enrichment R |
| B4 | 0.963 enrichment R |
| B5 | 1.15 enrichment R |
| B6 | 1.3 enrichment R |
| B7 | 2.89 enrichment R |
| B8 | 0.381 enrichment R |
| B9 | 0.724 enrichment R |
| B10 | 1.17 enrichment R |
| B11 | 1.14 enrichment R |
| B12 | 0.594 enrichment R |
| B13 | 0.714 enrichment R |
| B14 | 0.706 enrichment R |
| B15 | 0.723 enrichment R |
| B16 | 1.03 enrichment R |
| B17 | 1.02 enrichment R |
| B18 | 0.816 enrichment R |
| B19 | 0.849 enrichment R |
| B20 | 1.2 enrichment R |
| B21 | 1.3 enrichment R |
| B22 | 0.701 enrichment R |
